Drawing on paper PMC10117376, this text covers binding for five molecules.

Chains of the proteins cited; added tags and fusions are not shown.
UniProt Q6W2J9: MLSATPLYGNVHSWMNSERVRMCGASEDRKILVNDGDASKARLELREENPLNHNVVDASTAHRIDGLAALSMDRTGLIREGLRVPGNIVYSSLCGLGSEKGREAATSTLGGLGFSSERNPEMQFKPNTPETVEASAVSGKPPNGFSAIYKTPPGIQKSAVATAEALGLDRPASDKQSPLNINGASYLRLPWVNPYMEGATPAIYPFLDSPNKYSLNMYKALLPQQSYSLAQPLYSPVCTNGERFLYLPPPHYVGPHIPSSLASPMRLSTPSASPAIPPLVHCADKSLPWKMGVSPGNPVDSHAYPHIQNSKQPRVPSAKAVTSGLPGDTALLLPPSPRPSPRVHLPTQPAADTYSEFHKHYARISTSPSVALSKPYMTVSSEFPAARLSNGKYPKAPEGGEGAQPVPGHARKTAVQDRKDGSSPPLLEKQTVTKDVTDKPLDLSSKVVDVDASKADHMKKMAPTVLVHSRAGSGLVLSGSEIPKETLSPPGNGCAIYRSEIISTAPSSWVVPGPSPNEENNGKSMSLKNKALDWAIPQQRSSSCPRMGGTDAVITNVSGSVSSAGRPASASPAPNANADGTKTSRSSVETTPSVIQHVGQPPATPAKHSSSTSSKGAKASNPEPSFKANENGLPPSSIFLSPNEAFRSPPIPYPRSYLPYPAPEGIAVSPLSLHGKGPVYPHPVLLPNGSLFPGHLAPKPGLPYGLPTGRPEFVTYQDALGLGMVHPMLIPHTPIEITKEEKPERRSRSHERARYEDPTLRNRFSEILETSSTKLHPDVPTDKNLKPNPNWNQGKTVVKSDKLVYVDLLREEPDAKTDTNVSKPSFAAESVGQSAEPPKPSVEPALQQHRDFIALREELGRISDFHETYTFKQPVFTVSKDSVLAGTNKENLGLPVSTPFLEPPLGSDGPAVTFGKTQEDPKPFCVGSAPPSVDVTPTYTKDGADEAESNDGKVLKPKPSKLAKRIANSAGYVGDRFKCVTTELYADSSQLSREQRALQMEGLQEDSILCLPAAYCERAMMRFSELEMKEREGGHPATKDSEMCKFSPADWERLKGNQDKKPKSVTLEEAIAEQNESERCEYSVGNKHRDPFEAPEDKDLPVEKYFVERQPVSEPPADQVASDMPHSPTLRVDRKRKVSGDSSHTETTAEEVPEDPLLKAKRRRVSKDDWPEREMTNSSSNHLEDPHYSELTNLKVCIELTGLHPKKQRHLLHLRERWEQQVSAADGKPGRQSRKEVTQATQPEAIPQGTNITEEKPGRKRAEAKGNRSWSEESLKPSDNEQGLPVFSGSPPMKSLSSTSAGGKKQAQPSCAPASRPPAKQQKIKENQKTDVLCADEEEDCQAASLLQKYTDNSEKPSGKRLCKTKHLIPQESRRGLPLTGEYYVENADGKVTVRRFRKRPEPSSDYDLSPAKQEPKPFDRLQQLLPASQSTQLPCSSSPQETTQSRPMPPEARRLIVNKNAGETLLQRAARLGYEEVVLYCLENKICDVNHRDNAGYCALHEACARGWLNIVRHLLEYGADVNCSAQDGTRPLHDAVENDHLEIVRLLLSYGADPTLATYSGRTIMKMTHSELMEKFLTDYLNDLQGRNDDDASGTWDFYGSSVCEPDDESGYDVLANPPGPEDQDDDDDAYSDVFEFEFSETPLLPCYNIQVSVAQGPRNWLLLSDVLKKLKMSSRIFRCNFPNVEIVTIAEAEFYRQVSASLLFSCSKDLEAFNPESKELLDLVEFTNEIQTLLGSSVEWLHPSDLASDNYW
UniProt Q8WXI9: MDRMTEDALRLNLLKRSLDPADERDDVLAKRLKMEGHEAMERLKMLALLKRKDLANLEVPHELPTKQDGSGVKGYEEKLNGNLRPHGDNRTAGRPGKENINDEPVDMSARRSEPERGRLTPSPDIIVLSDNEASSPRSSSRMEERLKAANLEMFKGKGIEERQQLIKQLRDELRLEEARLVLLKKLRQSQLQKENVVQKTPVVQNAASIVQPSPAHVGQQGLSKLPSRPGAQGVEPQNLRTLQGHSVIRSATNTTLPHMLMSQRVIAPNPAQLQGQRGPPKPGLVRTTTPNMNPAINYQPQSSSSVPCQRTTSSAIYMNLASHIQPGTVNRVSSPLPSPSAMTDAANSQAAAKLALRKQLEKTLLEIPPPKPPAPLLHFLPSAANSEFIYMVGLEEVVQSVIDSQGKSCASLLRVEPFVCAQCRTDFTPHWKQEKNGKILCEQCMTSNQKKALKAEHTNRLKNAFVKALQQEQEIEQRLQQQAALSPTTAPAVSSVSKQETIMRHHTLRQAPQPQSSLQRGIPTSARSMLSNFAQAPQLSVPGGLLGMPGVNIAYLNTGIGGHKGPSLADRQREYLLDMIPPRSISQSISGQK

Common to all, as to assay: FRET or BRET; BRET in live HEK293 cells transfected with pairs of N-terminal Rluc and YFP fusions, 96-well plates; EnduRen substrate 48 h after transfection; Rluc-NLS and YFP-NLS as controls
In general terms: Bioluminescence resonance energy transfer reports proximity on the nanometre scale.

Assay [1] deals with T1, YFP-TBR1 p.K228E (human) (UniProt Q16650).
T1 sequence: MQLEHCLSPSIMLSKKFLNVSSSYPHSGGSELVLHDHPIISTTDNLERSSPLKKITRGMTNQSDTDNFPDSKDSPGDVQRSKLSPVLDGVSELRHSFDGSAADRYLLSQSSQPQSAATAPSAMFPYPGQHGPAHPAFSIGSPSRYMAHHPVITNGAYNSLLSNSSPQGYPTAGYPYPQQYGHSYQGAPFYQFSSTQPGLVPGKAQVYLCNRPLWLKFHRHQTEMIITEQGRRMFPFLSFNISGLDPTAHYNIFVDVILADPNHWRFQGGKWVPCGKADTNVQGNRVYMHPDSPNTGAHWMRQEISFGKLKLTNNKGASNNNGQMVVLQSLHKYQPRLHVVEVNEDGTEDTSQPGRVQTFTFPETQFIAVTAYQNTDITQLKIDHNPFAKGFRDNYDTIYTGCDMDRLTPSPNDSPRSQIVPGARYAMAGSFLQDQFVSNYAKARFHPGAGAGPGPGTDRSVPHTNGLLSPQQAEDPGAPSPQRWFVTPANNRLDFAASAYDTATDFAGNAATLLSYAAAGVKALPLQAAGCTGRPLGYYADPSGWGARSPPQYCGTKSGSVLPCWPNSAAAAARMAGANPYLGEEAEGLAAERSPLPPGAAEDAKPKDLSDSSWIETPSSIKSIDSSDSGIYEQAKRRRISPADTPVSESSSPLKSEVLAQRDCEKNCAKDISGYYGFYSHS

For assay [2], the target named is T2, YFP-TBR1 p.Q178E (human) (UniProt Q16650).
T2 sequence: T1 sequence with Q178E, E228K

Assay [3] concerns the target T3, YFP-TBR1 p.Q418R (human) (UniProt Q16650).
T3 sequence: T1 sequence with E228K, Q418R

Assay [4] has as its target T4, YFP-TBR1 p.S351* (human) (UniProt Q16650).
T4 sequence: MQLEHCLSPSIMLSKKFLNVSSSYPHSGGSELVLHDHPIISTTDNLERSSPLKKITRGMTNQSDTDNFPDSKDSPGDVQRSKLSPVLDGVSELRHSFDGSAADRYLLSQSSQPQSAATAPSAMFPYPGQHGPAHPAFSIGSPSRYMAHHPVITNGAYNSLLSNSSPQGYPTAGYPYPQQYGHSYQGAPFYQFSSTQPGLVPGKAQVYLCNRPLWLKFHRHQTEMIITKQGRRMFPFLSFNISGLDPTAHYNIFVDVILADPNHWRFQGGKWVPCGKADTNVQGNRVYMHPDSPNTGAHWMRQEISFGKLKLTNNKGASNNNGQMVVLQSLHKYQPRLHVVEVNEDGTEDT

Positions count from the first letter of the chain named. These are yes or no findings as the source states them, for the method shown. In cells and extracts the contact can be indirect. Some binding calls cover weakened binding; strength is not graded here. Sequences can lack the tags named with a protein.

Regarding Rluc-BCOR (from UniProt Q6W2J9 1-1755), the binding result in assay [1] is “binds”; in assay [2] it was “binds”; in assay [3] it was “binds weakly”; in assay [4] it was “no binding”.

For the molecule “Rluc-GATAD2B (from UniProt Q8WXI9 1-593)”, the binding entry is “binds” in assay [1], “binds” in assay [2], “no binding” in assay [3] and “no binding” in assay [4].

B1: Rluc-ADNP (protein, UniProt Q9H2P0 1-1102)
chain: MFQLPVNNLGSLRKARKTVKKILSDIGLEYCKEHIEDFKQFEPNDFYLKNTTWEDVGLWDPSLTKNQDYRTKPFCCSACPFSSKFFSAYKSHFRNVHSEDFENRILLNCPYCTFNADKKTLETHIKIFHAPNASAPSSSLSTFKDKNKNDGLKPKQADSVEQAVYYCKKCTYRDPLYEIVRKHIYREHFQHVAAPYIAKAGEKSLNGAVPLGSNAREESSIHCKRCLFMPKSYEALVQHVIEDHERIGYQVTAMIGHTNVVVPRSKPLMLIAPKPQDKKSMGLPPRIGSLASGNVRSLPSQQMVNRLSIPKPNLNSTGVNMMSSVHLQQNNYGVKSVGQGYSVGQSMRLGLGGNAPVSIPQQSQSVKQLLPSGNGRSYGLGSEQRSQAPARYSLQSANASSLSSGQLKSPSLSQSQASRVLGQSSSKPAAAATGPPPGNTSSTQKWKICTICNELFPENVYSVHFEKEHKAEKVPAVANYIMKIHNFTSKCLYCNRYLPTDTLLNHMLIHGLSCPYCRSTFNDVEKMAAHMRMVHIDEEMGPKTDSTLSFDLTLQQGSHTNIHLLVTTYNLRDAPAESVAYHAQNNPPVPPKPQPKVQEKADIPVKSSPQAAVPYKKDVGKTLCPLCFSILKGPISDALAHHLRERHQVIQTVHPVEKKLTYKCIHCLGVYTSNMTASTITLHLVHCRGVGKTQNGQDKTNAPSRLNQSPSLAPVKRTYEQMEFPLLKKRKLDDDSDSPSFFEEKPEEPVVLALDPKGHEDDSYEARKSFLTKYFNKQPYPTRREIEKLAASLWLWKSDIASHFSNKRKKCVRDCEKYKPGVLLGFNMKELNKVKHEMDFDAEWLFENHDEKDSRVNASKTADKKLNLGKEDDSSSDSFENLEEESNESGSPFDPVFEVEPKISNDNPEEHVLKVIPEDASESEEKLDQKEDGSKYETIHLTEEPTKLMHNASDSEVDQDDVVEWKDGASPSESGPGSQQVSDFEDNTCEMKPGTWSDESSQSEDARSSKPAAKKKATMQGDREQLKWKNSSYGKVEGFWSKDQSQWKNASENDERLSNPQIEWQNSTIDSEDGEQFDNMTDGVAEPMHGSLAGVKLSSQQA
On to B1, for which the binding result is recorded as “no binding” in assay [1], “binds” in assay [2], “no binding” in assay [3] and “no binding” in assay [4].

B2: Rluc-NR2F2 (protein, UniProt P24468 1-414)
chain: MAMVVSTWRDPQDEVPGSQGSQASQAPPVPGPPPGAPHTPQTPGQGGPASTPAQTAAGGQGGPGGPGSDKQQQQQHIECVVCGDKSSGKHYGQFTCEGCKSFFKRSVRRNLSYTCRANRNCPIDQHHRNQCQYCRLKKCLKVGMRREAVQRGRMPPTQPTHGQFALTNGDPLNCHSYLSGYISLLLRAEPYPTSRFGSQCMQPNNIMGIENICELAARMLFSAVEWARNIPFFPDLQITDQVALLRLTWSELFVLNAAQCSMPLHVAPLLAAAGLHASPMSADRVVAFMDHIRIFQEQVEKLKALHVDSAEYSCLKAIVLFTSDACGLSDVAHVESLQEKSQCALEEYVRSQYPNQPTRFGKLLLRLPSLRTVSSSVIEQLFFVRLVGKTPIETLIRDMLLSGSSFNWPYMAIQ
With B2, the binding entry in assay [1] is recorded as “binds”; in assay [2], “binds”; in assay [3], “binds”; in assay [4] it was “no binding”.

B3: Rluc-NR2F1 (protein, UniProt P10589 1-423)
chain: MAMVVSSWRDPQDDVAGGNPGGPNPAAQAARGGGGGAGEQQQQAGSGAPHTPQTPGQPGAPATPGTAGDKGQGPPGSGQSQQHIECVVCGDKSSGKHYGQFTCEGCKSFFKRSVRRNLTYTCRANRNCPIDQHHRNQCQYCRLKKCLKVGMRREAVQRGRMPPTQPNPGQYALTNGDPLNGHCYLSGYISLLLRAEPYPTSRYGSQCMQPNNIMGIENICELAARLLFSAVEWARNIPFFPDLQITDQVSLLRLTWSELFVLNAAQCSMPLHVAPLLAAAGLHASPMSADRVVAFMDHIRIFQEQVEKLKALHVDSAEYSCLKAIVLFTSDACGLSDAAHIESLQEKSQCALEEYVRSQYPNQPSRFGKLLLRLPSLRTVSSSVIEQLFFVRLVGKTPIETLIRDMLLSGSSFNWPYMSIQCS
Take B3: the binding result in assay [1] is “binds”; in assay [2] it was “binds”; in assay [3] it was “binds”; in assay [4], “no binding”.
